Data on 1 substance can be found in article PMC7694937.

Chains of the proteins cited; added tags and fusions are not shown.
UniProt Q9ULZ3: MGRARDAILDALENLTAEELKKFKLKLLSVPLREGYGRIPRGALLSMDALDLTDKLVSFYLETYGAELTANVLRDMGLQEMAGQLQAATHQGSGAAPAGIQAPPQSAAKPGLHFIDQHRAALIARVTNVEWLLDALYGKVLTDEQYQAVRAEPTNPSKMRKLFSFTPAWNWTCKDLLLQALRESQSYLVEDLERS
UniProt P29466: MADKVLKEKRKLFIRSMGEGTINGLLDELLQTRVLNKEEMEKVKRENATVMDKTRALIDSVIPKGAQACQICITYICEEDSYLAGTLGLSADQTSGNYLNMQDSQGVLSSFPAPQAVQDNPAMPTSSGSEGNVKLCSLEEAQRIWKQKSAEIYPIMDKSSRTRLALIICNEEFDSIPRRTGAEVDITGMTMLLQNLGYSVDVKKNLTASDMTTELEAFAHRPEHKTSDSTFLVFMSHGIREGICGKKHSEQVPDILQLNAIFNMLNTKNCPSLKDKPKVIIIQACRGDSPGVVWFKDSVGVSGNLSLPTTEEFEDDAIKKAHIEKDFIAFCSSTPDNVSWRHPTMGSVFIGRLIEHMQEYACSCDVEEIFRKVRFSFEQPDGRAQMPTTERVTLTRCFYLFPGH
UniProt Q96RD7: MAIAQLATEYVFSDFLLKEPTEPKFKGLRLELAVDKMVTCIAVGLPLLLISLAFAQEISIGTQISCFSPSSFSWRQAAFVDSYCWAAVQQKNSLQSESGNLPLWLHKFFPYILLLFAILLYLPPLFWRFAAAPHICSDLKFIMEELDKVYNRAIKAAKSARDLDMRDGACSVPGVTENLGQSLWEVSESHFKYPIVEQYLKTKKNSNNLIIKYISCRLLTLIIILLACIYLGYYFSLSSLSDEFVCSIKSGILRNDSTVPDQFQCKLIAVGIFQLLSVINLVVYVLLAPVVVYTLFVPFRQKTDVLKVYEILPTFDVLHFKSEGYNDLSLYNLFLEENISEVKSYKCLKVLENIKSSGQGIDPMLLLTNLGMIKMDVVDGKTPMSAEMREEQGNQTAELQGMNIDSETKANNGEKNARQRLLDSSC
UniProt P49023: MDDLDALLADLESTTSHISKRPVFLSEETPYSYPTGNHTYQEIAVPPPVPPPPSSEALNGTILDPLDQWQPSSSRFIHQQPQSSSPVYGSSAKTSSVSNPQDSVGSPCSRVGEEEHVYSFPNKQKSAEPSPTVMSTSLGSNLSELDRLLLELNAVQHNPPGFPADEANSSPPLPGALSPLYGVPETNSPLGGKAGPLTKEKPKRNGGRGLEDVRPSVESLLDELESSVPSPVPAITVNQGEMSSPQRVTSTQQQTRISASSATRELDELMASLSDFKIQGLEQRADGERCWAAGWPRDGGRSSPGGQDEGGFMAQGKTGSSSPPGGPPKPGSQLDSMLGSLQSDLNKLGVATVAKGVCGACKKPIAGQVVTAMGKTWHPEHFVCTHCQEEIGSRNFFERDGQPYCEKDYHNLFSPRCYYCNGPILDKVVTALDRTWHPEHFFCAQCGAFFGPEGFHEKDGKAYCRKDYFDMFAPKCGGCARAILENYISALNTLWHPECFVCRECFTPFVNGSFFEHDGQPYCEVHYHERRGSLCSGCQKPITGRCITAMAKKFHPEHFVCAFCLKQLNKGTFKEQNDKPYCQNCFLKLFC

These are yes or no findings as the source states them, for the method shown. Binding seen in cells or lysates may run through a third protein. Some results given as binding are weak or reduced against the parent protein; the word gives no strength.

Experiment in all cases: co-IP; HEK293T cells co-transfected with Flag- and HA-tagged plasmids; lysis in 50 mM Tris-HCl pH 7.5, 300 mM NaCl, 1% Triton-X, 5 mM EDTA, 10% glycerol; IP with anti-Flag antibody and Protein-G Sepharose, immunoblot with anti-HA and anti-Flag; in some panels cells treated with DMSO or ATP (5 mM) for 2 h; Fig. 6d-g shown as pairs of IPs whose antibodies the legend does not name

The target in assay [1] is Flag-ASC (human) (UniProt Q9ULZ3).
In assay [2] the target is Flag-Casp-1 (human) (UniProt P29466).
The target of assay [3] is Flag-Pannexin-1 (UniProt Q96RD7).

With HA-Paxillin (from UniProt P49023 1-591), the binding result in assay [1] was “no binding”; in assay [2], “no binding”; in assay [3], “binds”.
